Source: PubChem BioAssay AID686978 (National Center for Advancing Translational Sciences (NCATS), 2013)
In all, about 420,000 compounds went through this assay and about 64,000 (15%) were called active. Inconclusive means that the source gave no clear call. Such entries were picked first, then a sample of the others. Calls come from the whole dose curve; as a rule, active = well fitted inhibition curve with a large enough effect; inconclusive = small, poorly fitted or top-dose-only effect; inactive = flat fitted curve, though single readings scatter. No potency is given beside an inconclusive call; the fits are too rough.

Experiment: qHTS for Inhibitors of human tyrosyl-DNA phosphodiesterase 1 (TDP1): qHTS in cells in absence of CPT; note: nearly all actives have a fitted effect of over 55% in size
Conditions: DT40 Tdp1-/- hTDP1 cells, no CPT, ATP luminescence, 48 h; activity change, negative = growth inhibition: at 46.2 µM (top of the series) unless noted
Method in brief: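 Growth kinetics read by CellTiter-Glo luminescence after ≥48 hr at 37 °C. Cells: DT40 Tdp1-/- stably carrying human TDP1, 400 per well, compound exposure in the absence of CPT (DMSO vehicle).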
% is set by controls: 0 for no effect and ±100 for the full control effect; potency is the fitted concentration of half-maximal effect; tags give direction and shape of the fitted curve.

Compound	Potency	activity change, negative = growth inhibition
CCC1(c2ccccc2)SC(N)=NC1=O (stereo not given)	inactive	
COc1ccc(C(=O)NC(=S)Nc2cc(C)ccn2)cc1[N+](=O)[O-]	inconclusive [inhibitor, single point]	
CCCCOc1ccc(C(C)NC(=O)CN2C(=O)CSc3ccc(S(=O)(=O)N4CCOCC4)cc32)cc1 (stereo not given)	active: 23.1 µM	
Cc1c(C(=O)OC(C)C)sc(NC(=O)c2cnccn2)c1C(=O)OC(C)C	inactive	
CS(=O)(=O)N1CCC2(CCCN(c3ccccn3)C2)CC1	inactive	
CN1CCN(CC(=O)Nc2c(C(=O)c3ccccc3)oc3ccccc23)CC1	inconclusive [inhibitor, single point]	
CCOC(=O)c1oc2ccccc2c1NC(=O)c1ccccc1OC	inconclusive [inhibitor, single point]	
COc1ccc(N2CC(C(=O)N[C@@H](C)C(=O)N[C@H](CO)c3ccccc3)CC2=O)cc1 (stereo not given in full)	inactive	
COc1ccc(-c2cc(C(=O)N3CCN(c4ccc(F)cc4)CC3)no2)cc1	inconclusive [inhibitor, partial curve]	
CS(=O)(=O)NNC(=O)c1sccc1OCc1ncc(C(F)(F)F)cc1Cl		inconclusive: -30.7% [inhibitor]
CC(C)CC(=O)NCC(c1ccc2c(c1)OCO2)N1CCN(c2ccccc2)CC1 (stereo not given)	inconclusive [inhibitor, single point]	
CC(C)c1cc(N2CCC(=O)NC2=O)cc(C(=O)O)c1O	inactive	
COc1ccc(C(=O)C2CCCN(Cc3cn[nH]c3-c3ccc(F)cc3)C2)cc1OC (stereo not given)	inconclusive [inhibitor, single point]	
Cc1c(C(=O)OC2CCCCC2)[nH]c2c1C(=O)CC(c1ccc(F)cc1)C2 (stereo not given)	inconclusive [inhibitor, partial curve]	
O=C(Nc1cccc2ccccc12)c1onc2c1CCCC2	inconclusive [inhibitor, single point]	
Cc1ccc(-n2c(-c3ccc(Br)cc3)c[n+]3c2CCc2ccc4cccnc4c2-3)cc1	active: 0.291 µM	
Cc1nn(C(C)C(=O)c2cccc(Cl)c2)c(C)c1[N+](=O)[O-] (stereo not given)	inactive	
Nc1ccc(/C=C/c2nccc3ccccc23)cc1	inconclusive [inhibitor, single point]	

Compound	Potency	activity change, negative = growth inhibition
Cc1cccc(N(Cc2ccccc2)C(=O)c2ccc(F)c(S(=O)(=O)N3CCOCC3)c2)c1	inconclusive [inhibitor, single point]	
Cc1cccc(NC(=O)c2ccc(-n3c(C)nnc3C)cc2)c1	inactive	
CC[C@@]1(C(=O)OC)N[C@H](CN(C)S(=O)(=O)c2ccc(-c3ccccc3)cc2)[C@@H]2C(=O)N(C)C(=O)[C@@H]21	inconclusive [inhibitor, single point]	
COc1ccc(C(=O)NCc2nnc(SCC(=O)N3CCCC3)o2)cc1	inactive	
N#Cc1nc(COc2ccc(Cl)cc2)oc1N1CCCC1	inactive	
CS(=O)(=O)N(CC(=O)N1CCCC1)c1ccccc1Br	inactive	
O=C(Nc1cccc(-c2csc(Nc3cccc(C(F)(F)F)c3)n2)c1)c1cc([N+](=O)[O-])cc(C(F)(F)F)c1	active: 5.8 µM	
Cc1cccc(-n2c(SCc3ccc(C#N)cc3)nnc2-c2c[nH]c3ccccc23)c1	inconclusive [inhibitor, single point]	
COc1ccccc1CN1CCC(CNC(=O)c2cnn(-c3ccccc3Cl)c2C2CCN(C(=O)OC(C)(C)C)CC2)CC1	active: 8.2 µM	
CCOCCCNC(=O)c1cc(=O)n(Cc2cccc(C)c2)c2ccccc12	active: 20.6 µM	
CC(C)c1nc2c(s1)CCc1onc(-c3cccc([N+](=O)[O-])c3)c1-2	active: 23.1 µM	
O=C(CN1CCNCC1)NCCSc1ccc(Cl)cc1	inactive	
CCn1c(COc2ccc(Cl)cc2Cl)nc2ccccc21	inconclusive [inhibitor, single point]	
Cc1ccc(CNC(=O)CCn2cc(-c3ccc(C)cc3)nc2-c2ccncc2)cc1	inconclusive [inhibitor, single point]	
Cc1ccc2nc(Nc3ccc(C)c(Cl)c3)c3nncn3c2c1	inconclusive [inhibitor, single point]	
Cc1ccc(OCCC(=O)OCC(=O)NC2CCS(=O)(=O)C2)cc1 (stereo not given)	inactive	
Cc1ccc(CNC(=O)Nc2ccccc2)cc1	inactive	
